Source: publication PMC4336329 (PLoS ONE, 2015)
About 2,200 (0.71%) of roughly 310,000 compounds showed an effect of 50% or more. Effects have a minus sign here. The list shows a part of the results. *1 amine or outer side, *2 acyl side, *3 side chain or, on linkers, in order; H or OH if unused. Where a SMILES comes first, the peptide text is derived from it. Bridges are numbered along the chain shown (N, C = ends). [ ]: non-standard residue; d: D form. ξ: configuration not given here. hSer(Ph(2-I,4-NO2,6-CO)) = O=C([C@H](CCOc1c(I)cc([N+](=O)[O-])cc1C(=O)[*:3])N[*:1])[*:2]; ξD = NC(CC(=O)O)C(=O)O

These compounds were tested against human ether-à-go-go-related gene (hERG) potassium channel (human, UniProt Q12809) (assay: primary screen, population patch clamp on CHO cells stably expressing hERG).
Sequence of human ether-à-go-go-related gene (hERG) potassium channel (Q12809 whole entry, looked up): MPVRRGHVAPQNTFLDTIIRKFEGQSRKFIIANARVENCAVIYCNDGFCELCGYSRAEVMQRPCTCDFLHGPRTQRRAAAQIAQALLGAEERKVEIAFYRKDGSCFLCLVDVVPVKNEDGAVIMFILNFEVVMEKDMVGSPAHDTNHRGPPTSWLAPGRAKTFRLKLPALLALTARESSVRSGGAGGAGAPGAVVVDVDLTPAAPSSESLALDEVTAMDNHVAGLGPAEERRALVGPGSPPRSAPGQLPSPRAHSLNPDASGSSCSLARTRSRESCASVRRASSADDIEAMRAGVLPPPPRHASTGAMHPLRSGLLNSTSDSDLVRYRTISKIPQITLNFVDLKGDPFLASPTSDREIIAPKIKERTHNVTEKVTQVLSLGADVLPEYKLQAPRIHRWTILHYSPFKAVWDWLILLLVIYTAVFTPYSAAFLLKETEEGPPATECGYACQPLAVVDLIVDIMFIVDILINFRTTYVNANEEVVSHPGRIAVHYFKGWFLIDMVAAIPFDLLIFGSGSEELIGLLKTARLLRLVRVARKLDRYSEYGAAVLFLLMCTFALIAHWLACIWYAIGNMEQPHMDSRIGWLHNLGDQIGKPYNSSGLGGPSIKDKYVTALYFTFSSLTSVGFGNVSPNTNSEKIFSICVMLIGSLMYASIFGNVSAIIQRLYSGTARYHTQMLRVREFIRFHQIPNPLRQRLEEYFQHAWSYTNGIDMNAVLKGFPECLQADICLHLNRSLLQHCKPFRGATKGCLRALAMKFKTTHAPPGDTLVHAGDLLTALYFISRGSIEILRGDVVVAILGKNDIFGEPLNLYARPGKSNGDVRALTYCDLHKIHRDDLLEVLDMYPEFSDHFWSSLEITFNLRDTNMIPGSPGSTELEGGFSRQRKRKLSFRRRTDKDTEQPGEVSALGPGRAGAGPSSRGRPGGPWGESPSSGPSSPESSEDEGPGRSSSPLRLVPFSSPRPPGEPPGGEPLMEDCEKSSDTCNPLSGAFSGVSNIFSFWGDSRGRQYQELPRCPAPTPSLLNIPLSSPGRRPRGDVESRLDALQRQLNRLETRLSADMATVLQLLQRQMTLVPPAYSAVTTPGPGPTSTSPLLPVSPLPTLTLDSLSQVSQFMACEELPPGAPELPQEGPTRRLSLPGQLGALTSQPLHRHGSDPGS

Going from O=C1NC(=O)/C(=C/c2ccccn2)S1 to CN1C(=O)N(C)C(c2ccccc2Cl)C2=C1CC(C)(C)CC2=O (centres unmarked), the “hERG current change (%, negative = inhibition) at 1uM” value rises from 12.5% to 18.9%.

First: Cc1cc(C)n(CCC(=O)N2c3ccccc3CC2C)n1 (centres unmarked)
Second: CC(C)(C)NC(=O)c1cc(-c2ccccc2)n[nH]1
The “hERG current change (%, negative = inhibition) at 1uM” value of the first is lower: 9.29% for the first, 28.4% for the second.

Compared with O=C(CCc1nc(-c2ccccc2Cl)no1)NC1CCCCC1, Cc1ccc2cc(CN(Cc3ccco3)C(=O)NC3CCCCC3)c(=O)[nH]c2c1C is lower in “hERG current change (%, negative = inhibition) at 1uM” value: 16.6% for the first, -25.2% for the second.

Going from COc1ccccc1C(=O)Nc1cc(C)c(OCC(=O)N2CCOCC2)c(C)c1 to CCOc1cc(C(=O)Nc2ccc(C)cc2O)ccc1OCC(=O)N1CCOCC1, the “hERG current change (%, negative = inhibition) at 1uM” value falls from 12% to 0.439%.

Going from CCOC(=O)N1CCN(C(=O)/C(=C/c2ccccc2OC)NC(=O)c2ccccc2)CC1 to COc1ccccc1NC(=O)c1ccccc1NC(=O)c1ccccc1C(=O)O, the “hERG current change (%, negative = inhibition) at 1uM” value rises from -15% to 12.9%.

Compared with COc1ccc(CCn2c(=N)c(C(=O)NCC3CCCO3)cc3c(=O)n4ccccc4nc32)cc1 (centres unmarked), Cc1c(OC(C)C(=O)NCCN2CCOCC2)ccc2c(-c3ccccc3)cc(=O)oc12 (centres unmarked) is higher in “hERG current change (%, negative = inhibition) at 1uM” value: -84.4% for the first, -1.69% for the second.

Compared with COc1ccccc1OCCn1cc(C(=O)O)c2ccccc21, CN1C(=O)C(/C(N)=N/NC(=O)c2ccccc2)C2CC1(C)Oc1ccccc12 (centres unmarked) is higher in “hERG current change (%, negative = inhibition) at 1uM” value: 6.09% for the first, 12.3% for the second.

Compared with COc1ccc2cc3cc(C(=O)NCCCN4CCOCC4)oc3nc2c1, O=C(CN1CCOCC1)Nc1nc(-c2ccccc2)cs1 is higher in “hERG current change (%, negative = inhibition) at 1uM” value: 2.17% for the first, 11.4% for the second.

Going from COCC(=O)N/N=C(\C)CC(=O)Nc1ccccc1C(N)=O to CCN(CC)S(=O)(=O)c1ccc(C)c(NC(=O)CNCc2ccccc2OC)c1.O=C(O)C(=O)O, the “hERG current change (%, negative = inhibition) at 1uM” value rises from 0.0449% to 20.9%.

First: CC1CCC(NC(=O)CC(NC(N)=O)c2ccccc2Cl)CC1 (centres unmarked)
Second: CCOC(=O)N1CCC(NC(=O)CS(=O)Cc2nc(-c3ccccc3C)oc2C)CC1 (centres unmarked)
The “hERG current change (%, negative = inhibition) at 1uM” value of the first is higher: 12.8% for the first, 3.57% for the second.

First: CSCCNC(=O)Nc1c(-c2c(Cl)cccc2Cl)noc1C
Second: O=C(OCc1ccc(Cl)c(Cl)c1)c1cccnc1Cl
The “hERG current change (%, negative = inhibition) at 1uM” value of the first is lower: 14.6% for the first, 20.2% for the second.

First: O=C(NCc1ccccc1)C(=O)NCC1OCCN1S(=O)(=O)c1cccs1 (centres unmarked)
Second: COC(=O)COc1cccc(NC(=O)c2cccs2)c1
The “hERG current change (%, negative = inhibition) at 1uM” value of the first is higher: 12.4% for the first, 9.68% for the second.

Going from CCOC(=O)N1CCN(S(=O)(=O)c2c(C)nn(C)c2C)CC1 to CCOC(=O)C1CCN(S(=O)(=O)c2ccc(C)c(C)c2)CC1, the “hERG current change (%, negative = inhibition) at 1uM” value falls from 15.6% to 7.04%.

Compared with O=C(CSc1nn(-c2ccc(F)cc2)c(=S)s1)NCC1CCCO1 (centres unmarked), CCOC(=O)c1cccc(NC(=O)CCc2nnc3ccc(N4CCOCC4)nn23)c1 is higher in “hERG current change (%, negative = inhibition) at 1uM” value: -2.14% for the first, 11.7% for the second.

Compared with Cc1cc(C)c(S(=O)(=O)Nc2cccc(-n3cnnn3)c2)c(C)c1, Cc1ccc(C)c(NS(=O)(=O)c2ccc(-c3ccc(=O)[nH]n3)o2)c1 is higher in “hERG current change (%, negative = inhibition) at 1uM” value: 8.21% for the first, 10.7% for the second.

First: Cc1cccc(Nc2nc(NCCO)nc(N3CCCC3)n2)c1
Second: CCN1CCN(Cc2ccc(NC(=O)CC3Oc4ccc(C)cc4NC3=O)cc2)CC1 (centres unmarked)
The “hERG current change (%, negative = inhibition) at 1uM” value of the first is higher: 18.1% for the first, 5.32% for the second.

Compared with CCc1c(C)sc(NC(=O)CSc2nc3c(c(C(F)(F)F)n2)CCc2ccccc2-3)c1C#N, Cc1nnc(SCc2ccccc2)nc1/C=C/NOCc1ccc(Cl)cc1Cl is higher in “hERG current change (%, negative = inhibition) at 1uM” value: -2.86% for the first, 6.82% for the second.

First: COc1ccc(CNC(=O)C(c2ccco2)N(C(=O)c2ccccn2)c2ccccc2)cc1 (centres unmarked)
Second: CC(=O)Nc1ccc(NC(=O)c2ccc(S(=O)(=O)N(C)c3ccccc3)cc2)cc1
The “hERG current change (%, negative = inhibition) at 1uM” value of the first is lower: 8.96% for the first, 15.1% for the second.

First: COc1ccccc1C1CCN(c2ccc([N+](=O)[O-])c(OC)c2)CC1
Second: Cc1ccc(NC(=O)CN2C(=O)NC3(CCCc4ccccc43)C2=O)c([N+](=O)[O-])c1 (centres unmarked)
The “hERG current change (%, negative = inhibition) at 1uM” value of the first is higher: 8.48% for the first, -20.2% for the second.

First: Cc1ccc(OCc2nnc(SCC(=O)c3cccs3)n2-c2ccccc2)cc1C
Second: COc1ccc(C(=O)Nc2ccc(S(=O)(=O)Nc3onc(C)c3C)cc2)cc1
The “hERG current change (%, negative = inhibition) at 1uM” value of the first is lower: 8.53% for the first, 9.09% for the second.

Compared with O=C(NC(Nc1nc2ccc([N+](=O)[O-])cc2s1)(C(F)(F)F)C(F)(F)F)c1ccccc1Cl, O=C(Cn1nc(CNc2ccc(Br)cc2)[n+]2c1CCCCC2)c1ccc([N+](=O)[O-])cc1.[Br-] is lower in “hERG current change (%, negative = inhibition) at 1uM” value: -0.905% for the first, -11.5% for the second.

Going from COc1ccc(/C(C)=N/Nc2nccnc2Cl)cc1 to NC(=O)C(CC(=O)O)NC(=O)[C@@H]1CCOc2c(I)cc([N+](=O)[O-])cc2C(=O)N[C@@H](CCC(=O)O)C(=O)N[C@@H](CO)C(=O)N1 (some centres unmarked) (ES[hSer(Ph(2-I,4-NO2,6-CO))][ξD]-NH2; lactam N-3), the “hERG current change (%, negative = inhibition) at 1uM” value falls from 5.66% to -6.53%.
